# From PubChem BioAssay AID1508623 (National Center for Advancing Translational Sciences (NCATS), 2021)
# Out of some 48,000 compounds screened, about 450 (0.94%) were called active. Not shown: some 19% with an inconclusive outcome. Calls follow the shape of the dose curve; as a rule, active = well fitted inhibition curve with a large enough effect; inconclusive = small, poorly fitted or top-dose-only effect; inactive = no such curve, though single readings can be large or run the other way. This is one part of the list.
# Assay: Primary qHTS for Identification of Small Molecule Inhibitors of Huntingtin Promoter Activity; also: nearly all actives have a fitted effect of over 50% in size
# Details: HEK293 HTT promoter firefly luciferase reporter (activity 0% = vehicle and -100% = no light), 24 h; series mostly up to 57.5 µM; activity change, negative = inhibition: at the top concentration
# Procedure, shortened: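 HEK293 cells carrying firefly luciferase reporters were seeded at 2,500 per well in Opti-MEM and cultured for 24 h. They were then treated with compounds at up to 57.5 uM final for 24 h at 37 degrees C before Dual-Glo luminescence readout.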
# Potency is read from the fitted curve at half-maximal effect.
SMILES,"activity change, negative = inhibition",Potency
CCOC(=O)c1ccc(NC(=O)CC2Nc3ccccc3NC2=O)cc1 (centres undefined),inactive: -20.4%,
O=C(Nc1cc(-c2nc3cc(Cl)ccc3o2)ccc1Cl)c1cc([N+](=O)[O-])ccc1N1CCOCC1,inactive: 2.81%,
Cc1ccc(CNCc2cccn2-c2nnc(N3CCCC3)s2)cc1,inactive: -33.9%,
O=C(c1ccccc1Cl)N1CCCCC1CCN1CCOCC1 (centres undefined),inactive: -5%,
CCOc1cccc2c1Oc1nc(-c3ccccc3)nc(SCC(=O)Nc3ccc(F)cc3)c1C2,inactive: -16.9%,
CCn1cc(C(=O)O)c(=O)c2cc(F)c(N3CCNCC3)cc21,inactive,
CC(C)(C)OC(=O)N1CCC(c2c(C(=O)N3CCCCC3)cnn2-c2ccccc2Cl)CC1,inactive: -1.86%,
Cn1c(=O)oc2cc(S(=O)(=O)CCC(=O)NCCc3ccc(Cl)cc3)ccc21,inactive: -9.4% [at 11.5 µM],
COc1ccccc1OCc1nc(C#N)c(NCc2ccc(C)cc2)o1,inactive: -17.2%,
Cn1c(=O)c2sccc2n2c(CCCC(=O)NC3CCCCC3)nnc12,inactive: -29.9%,
Cc1ccc(Cl)cc1N1CCN(S(=O)(=O)c2cc(Br)cc3c2N(C(=O)C2CC2)CC3)CC1,inactive: -8.09%,
CCOC(=O)CC(NC(=O)CCc1c(C)nc2c(c1C)c(=O)n(C)c(=O)n2C)c1ccc(OCC)c(OC)c1 (centres undefined),inactive: 13.7%,
CC(=O)Nc1ccc(NC(=O)C(Cc2ccccc2)NS(=O)(=O)c2ccc3c(c2)oc(=O)n3C)cc1 (centres undefined),inactive: -9.37%,
CC(C)c1ccc(NS(=O)(=O)c2ccc3[nH]cc(C(=O)NCCc4ccccc4)c(=O)c3c2)cc1,inactive: -17.8%,
Cc1ccc(-n2nc(C)c3c(C)cc(=O)n(CC(=O)NC(C)c4ccccc4)c32)cc1 (centres undefined),inactive: 11.1%,
CCn1nc(C)c2c(-c3ccccc3)cc(=O)n(C(C)C(=O)NCCc3ccc(OC)c(OC)c3)c21 (centres undefined),inactive: -13.9%,
O=S(=O)(c1ccc(Cl)cc1)c1nnn2c1nc(NCc1ccc3c(c1)OCO3)c1sccc12,inactive: -2.96%,
Cc1ccc(N(CC(=O)Nc2cc(C)ccc2C)S(=O)(=O)c2c(C)noc2C)cc1,inactive: -24.3%,
COc1ccc(-n2c(SCC(=O)c3ccccc3)nc3c([nH]c4ccccc43)c2=O)cc1,inactive: -6.53%,
CCCCN(CC)CCNC(=O)C1CCCN(c2ncnc3onc(C)c23)C1 (centres undefined),inactive: 2.9%,
CCOc1ccccc1NC(=O)C1CCN(S(=O)(=O)c2ccc3c(c2)CCCN3C(C)=O)CC1,inactive: -12.8%,
Cc1ccc(COC(=O)c2[nH]c3c(c2C)C(=O)CC(c2ccc(N(C)C)cc2)C3)cc1 (centres undefined),inactive: -2.86%,
CC(=O)c1ccc(NC(=O)c2ccc(-n3cnnc3)cc2)cc1,inactive: -5.23% [at 11.5 µM],
CCC(=O)N1c2ccccc2CC1C(=O)NCc1ccc(N(C)C)cc1 (centres undefined),inactive: -13.8%,

SMILES,"activity change, negative = inhibition",Potency
CCOc1ccc(C(=O)c2oc3ccccc3c2NC(=O)c2cc(-c3ccc(Cl)cc3)on2)cc1,inactive: -7.45%,
COc1ccc(-c2nnc(SCC(=O)N(C)C3CCCCC3)o2)cc1OC,inactive: 0.116%,
O=c1oc2c3c(ccc2c2ccccc12)OCN(Cc1ccccc1Cl)C3,inactive: -7.57%,
CN(Cc1ccccc1)c1ncnc2c1nnn2C,inactive: -13.6%,
COC(=O)c1sccc1S(=O)(=O)N(CC(=O)Nc1ccccc1F)c1ccccc1,inactive: 9.45%,
Cc1cccc(C(=O)n2nc(-c3cccnc3)nc2NCc2ccccc2)c1,inactive: -30.3%,
CCn1cc(C(=O)NCCCOC)c(=O)c2cc(S(=O)(=O)N3CCCC3)ccc21,inactive: -2.92%,
Cc1ccc(C(=O)NCCc2ccc(S(N)(=O)=O)cc2)cc1-n1cnc2cccnc21,inactive: 5.33%,
O=C(CCCCn1c(=O)c2ccccc2n(CC(=O)Nc2ccc(F)cc2F)c1=O)NCCc1ccccc1,inactive: 4.59%,
COC(=O)c1c(NC(=O)Cc2coc3ccc(C(C)C)cc23)sc2c1CCC2,inactive: -23.6%,
CC(C)Oc1ccc(C(=O)NCC(c2ccc(N(C)C)cc2)N2CCCC2)cc1 (centres undefined),inactive: 13.6%,
CCOc1ccccc1NC(=O)CCNS(=O)(=O)c1cccc2nonc12,inactive: -8.48%,
COc1cc(C(=O)Nc2ccc3c(c2)N(C2CCCC2)C(=O)c2ccccc2S3)cc(OC)c1OC,inactive: 3.81%,
CCOc1ccccc1NC(=O)C1CCCN1S(=O)(=O)c1ccc2c(c1)C(C)(C)C(=O)N2C (centres undefined),inactive: -30.6%,
Cc1cc(NC(=O)c2ccc3c(c2)OCCO3)cc(-c2nc3ccccc3o2)c1O,inactive: -10.9%,
COc1ccc(NC(=O)N2CCOc3ccc(Cl)cc32)cc1,inactive: 15.3%,
Nc1c(C(=O)Nc2ccccc2F)sc2nc3c(cc12)CCCCCC3,inactive: 8.14%,
CCOC(=O)c1c(NC(=O)c2cc3nc(-c4ccc(Br)cc4)cc(C(F)(F)F)n3n2)sc(C(C)=O)c1C,inactive: -4.43%,
COc1ccc(Cc2nc3c4cnn(-c5ccccc5F)c4ncn3n2)cc1,inactive: -24.3%,
CCCCNC(=O)c1cc(-c2ccc(OC)cc2)nc2n[nH]c(-c3cccc([N+](=O)[O-])c3)c12,inactive: -25.7%,
CCc1ccc(NC(=O)CCNS(=O)(=O)c2ccc3c(c2)oc(=O)n3C)cc1,inactive: 66%,
CCOC(=O)c1ccccc1NC(=O)CN1CCCN(Cc2cccc(Cl)c2)S1(=O)=O,inactive: -21.8%,
CCN(CC)CCCNC(=O)c1nn(C)c2c1CSc1ccccc1-2,inactive: -12.2%,
CCN(CC)c1ccc(C(=O)NCc2ccc3c(c2)CCN3C(=O)c2ccc(F)cc2)cc1,inactive: -17.9%,

SMILES,"activity change, negative = inhibition",Potency
Cc1ccc(CNC(=O)c2ccc3c(c2)nc2n3CCOC2)cc1,inactive: 6.07%,
Cc1ccc(-n2nc(C)c3c(C(=O)NCCc4ccccc4)cc(C)nc32)cc1,inactive: -27.8%,
COc1ccc(C(C)=O)cc1CSc1nc(NCCc2ccccc2)c2ccccc2n1,inactive: -0.805%,
COc1ccc(NC(=O)CCc2nc3c(C)nn(-c4ccc(C)cc4)c3n(C)c2=O)cc1,inactive: 2.98%,
CCCS(=O)(=O)c1c(S(=O)(=O)CCC)c2cc(CC)ccn2c1C(=O)c1ccc(Cl)cc1,inactive: -27.3%,
COc1ccc(Cl)cc1CNCCSc1nnnn1-c1ccccc1,inactive: -1.56%,
COc1ccc(C2NC(=O)N(C)C3=C2C(=O)N(c2cccc(C(=O)O)c2)C3)cc1 (centres undefined),inactive: -38.7%,
COc1ccc(S(=O)(=O)Nc2cc3c(C(=O)OC(C)C)c(C)oc3c3ccccc23)cc1,inactive: -40.5%,
COc1ccc(CNC(=O)CN2C(=O)CCn3nc(-c4ccccc4)cc32)c(OC)c1,inactive: -5.61%,
Cc1oc2ncn(C)c(=O)c2c1C(=O)NCc1ccc(Cl)cc1,inactive: 14.3%,
Cn1c(Nc2ccc(Cl)cc2)cc(=O)n(C)c1=O,inactive: 7.06%,
CC1=C(C(=O)Nc2ccc(C)cc2C)C(c2ccc(O)cc2)n2nc(SCC(=O)c3ccc(C)cc3)nc2N1 (centres undefined),inactive: -8.69%,
COc1ccc(-c2nn3c(=O)cc(CN4CCN(S(=O)(=O)c5ccc(C)cc5)CC4)nc3s2)cc1,inactive: -5.3%,
Cc1cc(OCC(O)CN2CCN(c3cccc(Cl)c3)CC2)ccc1Cl (centres undefined),inactive: -10.5%,
COc1ccc(C(=O)Nc2ccc(S(=O)(=O)N(Cc3ccccc3)c3ccccc3)cc2)cc1,,active: 5.01 µM
CC(C)Cc1nn2c(=O)cc(COC(=O)c3ccccc3NC(=O)C3CCCCC3)nc2s1,inactive: -15.3%,
Cc1ccc(S(=O)(=O)NCc2nc3cccnc3n2Cc2ccccc2Cl)c(C)c1,inactive: -17.5%,
CCc1nnc2c(Nc3ccc(N(CC)CC)cc3C)nc3ccccc3n12,inactive: 12%,
Cc1cc(S(=O)(=O)Nc2ccc(C(=O)O)cc2)c(C)c(S(=O)(=O)c2ccc(Cl)cc2)c1,inactive: -12%,
COc1cccc(NS(=O)(=O)c2ccc3c(c2)N(C)C(=O)CC(=O)N3C)c1,inactive: -7.31%,
COc1ccc(C)cc1NC(=O)c1cn(C)c(=O)c2cc(OC)c(OC)cc12,inactive: -5.53%,
COc1ccccc1NC(=O)CN1C(=O)c2ccccc2Sc2ccc(C(=O)N3CCCC3)cc21,inactive: -28%,
CCc1ccccc1NC(=O)N1CC(C)Sc2ccccc21 (centres undefined),inactive: -7.99%,
CC(=O)c1ccccc1OCC(O)Cn1c(CO)nc2ccccc21 (centres undefined),inactive: -11.2%,

SMILES,"activity change, negative = inhibition",Potency
CC1CN(C(=O)N2CCC(C(=O)NCc3ccco3)CC2)c2ccccc2O1 (centres undefined),inactive: -0.668%,
CCCCC(F)(F)[C@@]1(O)CC[C@H]2[C@H](CC(=O)[C@@H]2CCCCCCC(=O)O)O1,inactive: -0.921%,
CC1CCN(c2nc3ccccc3nc2C(F)(F)F)CC1,inactive: -1.96%,
CCOc1cccc(C2c3c(oc4ccc(F)cc4c3=O)C(=O)N2c2cc(C)ccn2)c1 (centres undefined),inactive: 2.22%,
Cc1cccc(CN2C(=O)c3ccccc3Sc3ccc(C(=O)NCCCN4CCOCC4)cc32)c1,inactive: -22.7%,
O=C(Nc1nc2ccccc2n1CCOc1ccccc1Cl)c1ccccc1,inactive: 64.3%,
COc1c(O)cc2c(c1O)[C@@H]1O[C@H](CO)[C@@H](O)[C@H](O)[C@H]1OC2=O,inactive: 2.93%,
CCN(CC)S(=O)(=O)c1nnc(NC(=O)c2ccc(C)cc2)s1,inactive: 5.48%,
COc1ccccc1C1C(C(=O)Nc2ccccc2)=C(C)Nc2nc(-c3ccccc3)nn21 (centres undefined),inactive: -14.8%,
CC(=O)N1CCc2cc(S(=O)(=O)NC(Cc3ccccc3)C(=O)Nc3cc(C)cc(C)c3)ccc21 (centres undefined),inactive: -23.3%,
CC1CCCCN1CCCNC(=O)Cn1ncc2c3ccccc3n(Cc3ccccc3)c2c1=O (centres undefined),inactive: 16.9%,
Cc1ccc(Cl)cc1N1CCN(C(=O)CCc2nnc3n(C)c(=O)c4ccccc4n23)CC1,inactive: -10.6%,
CCN(Cc1ccccc1)C(=O)c1cn(-c2cccc(OC)c2)c(=O)c2ccccc12,inactive: -12.8%,
O=C(Cn1ncc2c3ccccc3n(Cc3ccccc3)c2c1=O)NCCCN1CCCCC1,inactive: 9.07%,
COc1ccc(-c2cc(C(=O)Oc3ccc(C#N)cc3)no2)cc1,inactive: 9%,
COc1ccc(C(C)=O)c(O)c1,inactive: -8.01%,
COc1ccc(CNC(=O)C(CC(C)C)NS(=O)(=O)c2ccc3c(c2)CCN3C(C)=O)cc1 (centres undefined),inactive: -5.27%,
CCCc1cc(=O)[nH]c(SCc2nc(-c3ccccc3)no2)n1,inactive: 0.445%,
COc1ccc(Nc2nnc(-n3nc(C)cc3C)c3ccccc23)cc1,inactive: -6.57%,
CNC(=O)c1c(I)c(NC(=O)CCCCC(=O)Nc2c(I)c(C(=O)O)c(I)c(C(=O)NC)c2I)c(I)c(C(=O)O)c1I,inactive: -21%,
O=C(NCCOCCn1c(=O)oc2ccccc21)Nc1ccc(F)cc1F,inactive: -19%,
COc1cc(Br)cc2cc(S(=O)(=O)c3ccccc3)c(=O)oc12,inactive: -12.1%,
